tested on: spider mite Tetranychus telarius; details: application rate 20 ppm; assessed after 5 days
Method: Potted bush beans which had developed the first pair of true leaves and were heavily infested with all stages of the spider mite Tetranychus telarius were sprayed to runoff in a spray cabinet with aqueous formulations of the active ingredients. The plants were placed on a rotating disc and sprayed from all sides with 50 ml of spray liquor. The plants were heavily infested with mites and numerous eggs had been laid on them. The action was assessed after 5 days by means of a binocular microscope. During this period, the plants were kept under normal greenhouse conditions.

SMILES	Mortality in % [%]
COC=C(C(=O)OC)c1ccccc1CON=C(C)c1ccccc1Cl [Compound no. 573 (Table I)]	100
COC=C(C(=O)OC)c1ccccc1CON=C(C)c1cc(Cl)ccc1Cl [Compound no. 579 (Table I)]	80

same assay, conditions: application rate 40 ppm; assessed after 5 days

SMILES	Mortality in % [%]
CCCOC(C)(C)C(C#N)=NOCc1ccccc1C(=COC)C(=O)OC [Compound no. 38 (Table I)]	100
COC=C(C(=O)OC)c1ccccc1CON=C(C)c1ccc(Cl)c(Cl)c1Cl [Compound no. 583 (Table I)]	100
COC=C(C(=O)OC)c1ccccc1CON=C(C)c1cccc(Br)c1 [Compound no. 592 (Table I)]	100
COC=C(C(=O)OC)c1ccccc1CON=C(C)c1cccc(C(F)(F)F)c1 [Compound no. 705 (Table I)]	100

same assay, conditions: application rate 100 ppm; assessed after 5 days

SMILES	Mortality in % [%]
COC=C(C(=O)OC)c1ccccc1CON=C(C#N)C(C)C [49 (Table I)]	80
COC=C(C(=O)OC)c1ccccc1CON=C(C#N)C(C)(C)OC [Compound no. 36 (Table I)]	80
COC=C(C(=O)OC)c1ccccc1CON=C(C#N)C(C)(C)OC(C)C [Compound no. 39 (Table I)]	100

same assay, conditions: application rate 1000 ppm; assessed after 5 days

SMILES	Mortality in % [%]
COC=C(C(=O)OC)c1ccccc1CON=C(C#N)OC1CCCCO1 (stereo not drawn) [429 (Table I)]	100
CCOC(C)(C)C(C#N)=NOCc1ccccc1C(=NOC)C(=O)OC [Compound no. 37 (Table II)]	100
CON=C(C(=O)OC)c1ccccc1CON=C(C#N)C(C)(C)OC(C)C [Compound no. 39 (Table II)]	100
COC=C(C(=O)OC)c1ccccc1CON=C(C#N)C(C)(C)SC [Compound no. 43 (Table I)]	100
COC=C(C(=O)OC)c1ccccc1CON=C(C#N)C(C)(C)SC(C)(C)C [Compound no. 45 (Table I)]	100
CON=C(C(=O)OC)c1ccccc1CON=C(C#N)C(C)(C)SC(C)(C)C [Compound no. 45 (Table II)]	100
COC=C(C(=O)OC)c1ccccc1CON=C(C)c1ccc(Br)cc1 [Compound no. 593 (Table I), Methyl 3-methoxy-2-[2′-(1″-(4′″-bromophenyl)-1″-methyl)-iminooxymethyl]-phenylacrylate]	80

same assay, conditions: application rate about 20 ppm; assessed after 5 days

SMILES	Mortality in % [%]
COC=C(C(=O)OC)c1ccccc1CON=C(C)c1cc(Cl)cc(Cl)c1 [Compound no. 582 (Table I), Methyl 3-methoxy-2-[2′-[1″-(3′″,5′″-dichlorophenyl)-1″-methyl]-iminooxymethyl]-phenylacrylate]	100
COC=C(C(=O)OC)c1ccccc1CON=C(C)c1ccccc1C(F)(F)F [Compound no. 704 (Table I)]	100

— patent publication USRE37839E1, “O-benzyloxime ethers and crop protection agents containing these compounds” (BASF Aktiengesellschaft, priority 1990, dated 2002)
